{"source": "patent EP1064284B1", "about": "“HYPNOTIC BETA-CARBOLINE DERIVATIVES, PROCESS FOR THEIR PREPARATION AND THEIR USE AS MEDICINAL PRODUCTS” (priority 1998, dated 1999)", "test_system": "10- to 14-day-old chicks of chair label JA657 strain", "assay": "Hypnotic and sedative effects in chicks (IM administration)", "conditions": "for FAT: falling-asleep time; for ST: sleep time", "key": {"[1]": {"conditions": "1 µmol/100 g IM, ranges = limit values of batch averages"}, "[2]": {"conditions": "1 µmol/100 g IM, NA = animals remained conscious, ranges = limit values of batch averages"}, "[3]": {"conditions": "2 µmol/100 g IM, ranges = limit values of batch averages"}, "[4]": {"conditions": "0.5 µmol/100 g IM, NA = animals remained conscious, ranges = limit values of batch averages"}, "[5]": {"conditions": "2 µmol/100 g IM, NA = animals remained conscious, ranges = limit values of batch averages"}, "[6]": {"conditions": "0.5 µmol/100 g IM, ranges = limit values of batch averages"}}, "data": [{"compound": "9-methoxy-1-p-nitrophenyl-2,3,4,6,7,12-hexahydroindolo[2,3-a] quinolizin-4-one [Example 17]", "values": [{"measurement": "Sedation time", "setting": "[1]", "result": 38, "unit": "min"}, {"measurement": "FAT", "setting": "[2]", "result": 11, "unit": "min"}, {"measurement": "ST", "setting": "[1]", "result": 7, "unit": "min"}]}, {"compound": "COc1ccc2[nH]c3c(c2c1)CCN=C3C", "note": "[10-methoxyharmalan, reference compound]", "values": [{"measurement": "Sedation time", "setting": "1.4 µmol/100 g IM", "result": 0, "unit": "min"}, {"measurement": "ST", "setting": "1.4 µmol/100 g IM", "result": 0, "unit": "min"}]}, {"compound": "CN1C(=O)CN=C(c2ccccc2)c2cc(Cl)ccc21", "note": "[Diazepam, reference compound]", "values": [{"measurement": "Sedation time", "setting": "[1]", "result": "17 to 20", "unit": "min"}, {"measurement": "Sedation time", "setting": "[3]", "result": "14 to 15", "unit": "min"}, {"measurement": "FAT", "setting": "[4]", "result": "3 to 6", "unit": "min"}, {"measurement": "FAT", "setting": "[2]", "result": "2 to 7", "unit": "min"}, {"measurement": "FAT", "setting": "[5]", "result": "2 to 5", "unit": "min"}, {"measurement": "ST", "setting": "[6]", "result": "10 to 50", "unit": "min"}, {"measurement": "ST", "setting": "[1]", "result": "24 to 70", "unit": "min"}, {"measurement": "ST", "setting": "[3]", "result": "81 to 100", "unit": "min"}]}, {"compound": "CCC1=C2c3[nH]c4ccc(OC)cc4c3CCN2C(=O)CC1", "note": "[Example 1, 9-methoxy-1-ethyl-2,3,4,6,7,12-hexahydroindolo [2,3-a] quinolizin-4-one]", "values": [{"measurement": "Sedation time", "setting": "0.25 µmol/100 g IM", "result": 15, "unit": "min"}, {"measurement": "Sedation time", "setting": "0.5 µmol/100 g IM", "result": 17, "unit": "min"}, {"measurement": "Sedation time", "setting": "[1]", "result": "5 to 20", "unit": "min"}, {"measurement": "FAT", "setting": "0.25 µmol/100 g IM", "result": 10, "unit": "min"}, {"measurement": "FAT", "setting": "[4]", "result": 9, "unit": "min"}, {"measurement": "FAT", "setting": "[2]", "result": "6 to 14", "unit": "min"}, {"measurement": "ST", "setting": "0.25 µmol/100 g IM", "result": 16, "unit": "min"}, {"measurement": "ST", "setting": "[6]", "result": 18, "unit": "min"}, {"measurement": "ST", "setting": "[1]", "result": "28 to 101", "unit": "min"}]}, {"compound": "COc1ccc2[nH]c3c(c2c1)CCN1C(=O)CCC(C(C)C)=C31", "note": "[Example 3, 9-methoxy-1-isopropyl-2,3,4,6,7,12-hexahydroindolo[2,3-a] quinolizin-4-one]", "values": [{"measurement": "Sedation time", "setting": "0.75 µmol/100 g IM", "result": 1, "unit": "min"}, {"measurement": "FAT", "setting": "0.75 µmol/100 g IM", "result": 12, "unit": "min"}, {"measurement": "ST", "setting": "0.75 µmol/100 g IM", "result": 23, "unit": "min"}]}, {"compound": "COc1ccc2[nH]c3c(c2c1)CCN1C(=O)CCC(c2ccccc2)=C31", "note": "[Example 4, 9-methoxy-1-phenyl-2,3,4,6,7,12-hexahydroindolo[2,3-a] quinolizin-4-one]", "values": [{"measurement": "Sedation time", "setting": "0.25 µmol/100 g IM", "result": 17, "unit": "min"}, {"measurement": "Sedation time", "setting": "0.5 µmol/100 g IM", "result": 8, "unit": "min"}, {"measurement": "Sedation time", "setting": "[1]", "result": "22 to 32", "unit": "min"}, {"measurement": "FAT", "setting": "0.25 µmol/100 g IM", "result": 10, "unit": "min"}, {"measurement": "FAT", "setting": "[4]", "result": 12, "unit": "min"}, {"measurement": "FAT", "setting": "[2]", "result": "13 to 15", "unit": "min"}, {"measurement": "ST", "setting": "0.25 µmol/100 g IM", "result": 9, "unit": "min"}, {"measurement": "ST", "setting": "[6]", "result": 11, "unit": "min"}, {"measurement": "ST", "setting": "[1]", "result": "13 to 27", "unit": "min"}]}, {"compound": "CCOC(=O)C1=C2c3[nH]c4ccc(OC)cc4c3CCN2C(=O)CC1", "note": "[Example 5, 1-carbethoxy-9-methoxy-2,3,4,6,7,12-hexahydroindolo[2,3-a] quinolizin-4-one]", "values": [{"measurement": "Sedation time", "setting": "0.75 µmol/100 g IM", "result": 10, "unit": "min"}, {"measurement": "FAT", "setting": "0.75 µmol/100 g IM", "result": 12, "unit": "min"}, {"measurement": "ST", "setting": "0.75 µmol/100 g IM", "result": 10, "unit": "min"}]}, {"compound": "CCC1=C2c3[nH]c4cc(CC)c(OC)cc4c3CCN2C(=O)CC1", "note": "[Example 6, 9-methoxy-1,10-diethyl-2,3,4,6,7,12-hexahydroindolo[2,3-a] quinolizin-4-one]", "values": [{"measurement": "Sedation time", "setting": "[1]", "result": 5, "unit": "min"}, {"measurement": "FAT", "setting": "[2]", "result": 8, "unit": "min"}, {"measurement": "ST", "setting": "[1]", "result": 102, "unit": "min"}]}, {"compound": "CCC1=C2c3[nH]c4ccc(OC)cc4c3CCN2C(=S)CC1", "note": "[Example 7, 9-methoxy-1-ethyl-2,3,4,6,7,12-hexahydroindolo[2,3-a] quinolizine-4-thione]", "values": [{"measurement": "Sedation time", "setting": "0.5 µmol/100 g IM", "result": 10, "unit": "min"}, {"measurement": "Sedation time", "setting": "[1]", "result": 30, "unit": "min"}, {"measurement": "FAT", "setting": "[4]", "result": 8, "unit": "min"}, {"measurement": "FAT", "setting": "[2]", "result": 5, "unit": "min"}, {"measurement": "ST", "setting": "[6]", "result": 28, "unit": "min"}, {"measurement": "ST", "setting": "[1]", "result": 35, "unit": "min"}]}, {"compound": "CCC1CCC(=O)N2CCc3c([nH]c4ccc(OC)cc34)C12", "note": "(stereo not drawn) [Example 8, 9-methoxy-1-ethyl-1,2,3,4,6,7,12,12b-octahydroindolo [2,3-a] quinolizin-4-one]", "values": [{"measurement": "Sedation time", "setting": "[3]", "result": 37, "unit": "min"}, {"measurement": "FAT", "setting": "[5]", "result": 15, "unit": "min"}, {"measurement": "ST", "setting": "[3]", "result": 15, "unit": "min"}]}, {"compound": "CCC1=C2c3ccc4ccc(OC)cc4c3CCN2C(=O)CC1", "note": "[Example 9, 11-ethyl-3-methoxy-5,8,9, 10-tetrahydro-6H-benzo[f]pyrido[2,1-a]isoquinolin-8-one]", "values": [{"measurement": "Sedation time", "setting": "[1]", "result": 16, "unit": "min"}, {"measurement": "FAT", "setting": "[2]", "result": 11, "unit": "min"}, {"measurement": "ST", "setting": "[1]", "result": 43, "unit": "min"}]}, {"compound": "COc1ccc2[nH]c3c(c2c1)CCN1C(=S)CCC(c2ccccc2)=C31", "note": "[Example 11, 9-methoxy-1-phenyl-2,3,4,6,7,12-hexahydroindolo [2,3-a] [beta]quinolizin 4-thione]", "values": [{"measurement": "Sedation time", "setting": "0.5 µmol/100 g IM", "result": 8, "unit": "min"}, {"measurement": "Sedation time", "setting": "[1]", "result": 24, "unit": "min"}, {"measurement": "FAT", "setting": "[4]", "result": 9, "unit": "min"}, {"measurement": "FAT", "setting": "[2]", "result": 8, "unit": "min"}, {"measurement": "ST", "setting": "[6]", "result": 20, "unit": "min"}, {"measurement": "ST", "setting": "[1]", "result": 25, "unit": "min"}]}, {"compound": "COc1ccc2[nH]c3c(c2c1)CCN1C(=O)CCC(c2ccc(F)cc2)=C31", "note": "[Example 13, 9-methoxy-1-(p-fluorophenyl)-2,3,4,6,7,12-hexahydroindolo [2,3-a]quinolizin-4-one]", "values": [{"measurement": "Sedation time", "setting": "[1]", "result": 23, "unit": "min"}, {"measurement": "FAT", "setting": "[2]", "result": 15, "unit": "min"}, {"measurement": "ST", "setting": "[1]", "result": 29, "unit": "min"}]}, {"compound": "COc1ccc(C2=C3c4[nH]c5ccc(OC)cc5c4CCN3C(=O)CC2)cc1", "note": "[Example 14, 9-methoxy-1-(p-methoxyphényl) -2,3,4,6,7, 12-hexahydroindolo [2,3-a]quinolizin-4-one]", "values": [{"measurement": "Sedation time", "setting": "[1]", "result": 29, "unit": "min"}, {"measurement": "FAT", "setting": "[2]", "result": 10, "unit": "min"}, {"measurement": "ST", "setting": "[1]", "result": 15, "unit": "min"}]}, {"compound": "COc1ccc2[nH]c3c(c2c1)CCN1C(=O)CCC(c2ccccn2)=C31", "note": "[Example 16, 9-methoxy-1-(pyrid-2'-yl)-2,3,4,6,7,12-hexahydroindolo [2,3-a]quinolizin-4-one]", "values": [{"measurement": "Sedation time", "setting": "[1]", "result": 42, "unit": "min"}, {"measurement": "FAT", "setting": "[2]", "result": 6.5, "unit": "min"}, {"measurement": "ST", "setting": "[1]", "result": 15, "unit": "min"}]}, {"compound": "COc1ccc2[nH]c3c(c2c1)CCN1C(=O)CCC(c2ccc(C)cc2)=C31", "note": "[Example 18, 9-méthoxy-1-p-tolyl-2,3,4,6,7,12-hexahydroindolo[2,3-a] quinolizin-4-one]", "values": [{"measurement": "Sedation time", "setting": "[1]", "result": 58, "unit": "min"}, {"measurement": "FAT", "setting": "[2]", "result": 5, "unit": "min"}, {"measurement": "ST", "setting": "[1]", "result": 16, "unit": "min"}]}, {"compound": "COc1ccc2[nH]c3c(c2c1)CCN1C(=O)CCC(c2ccccc2)C31", "note": "(stereo not drawn) [Example 19, 9-methoxy-1-phenyl-1,2,3,4,6,7,12,12b-octahydroindolo[2,3-a]quinolizin-4-one]", "values": [{"measurement": "Sedation time", "setting": "[1]", "result": 33, "unit": "min"}, {"measurement": "FAT", "setting": "[2]", "result": 2, "unit": "min"}, {"measurement": "ST", "setting": "[1]", "result": 35, "unit": "min"}]}, {"compound": "COc1ccc2c3c([nH]c2c1)C(C)=NCC3", "note": "[Harmaline, harmaline, reference compound]", "values": [{"measurement": "Sedation time", "setting": "1.4 µmol/100 g IM", "result": 0, "unit": "min"}, {"measurement": "ST", "setting": "1.4 µmol/100 g IM", "result": 0, "unit": "min"}]}, {"compound": "COc1ccc2[nH]cc(CCNC(C)=O)c2c1", "note": "[Melatonin, N-acetyl-5-methoxytryptamine, reference compound]", "values": [{"measurement": "Sedation time", "setting": "[1]", "result": "16 to 36", "unit": "min"}, {"measurement": "Sedation time", "setting": "[3]", "result": "47 to 105", "unit": "min"}, {"measurement": "hypnotic activity (in words)", "setting": "administration in the light phase between 14.00 h and 15.00 h", "result": "no hypnotic activity"}, {"measurement": "ST", "setting": "[6]", "result": 0, "unit": "min"}, {"measurement": "ST", "setting": "[1]", "result": 0, "unit": "min"}, {"measurement": "ST", "setting": "[3]", "result": 0, "unit": "min"}]}, {"compound": "CCCC(C)C1(CC)C(=O)NC(=O)NC1=O", "note": "(stereo not drawn) [Pentobarbital, reference compound]", "values": [{"measurement": "FAT", "setting": "[2]", "result": 13, "unit": "min"}, {"measurement": "ST", "setting": "[6]", "result": 0, "unit": "min"}, {"measurement": "ST", "setting": "[1]", "result": 36, "unit": "min"}]}]}
